According to PubChem BioAssay AID1460 (National Center for Advancing Translational Sciences (NCATS), 2008):
Hit rate of the full screen: of about 270,000 compounds, about 5,800 (2.1%) were called active. This list was built around the results that the source calls inconclusive (neither active nor inactive); the mix of calls is not that of the screen. Calls follow the shape of the dose curve; as a rule, active = well fitted inhibition curve with a large enough effect; inconclusive = small, poorly fitted or top-dose-only effect; inactive = flat fitted curve, though single readings scatter. Where the call is inconclusive, the potency comes from a doubtful curve fit.

These compounds were tested against Microtubule-associated protein tau (Homo sapiens) (UniProt P10636) (assay: qHTS for Inhibitors of Tau Fibril Formation, Thioflavin T Binding). Conditions: recombinant tau K18 P301L (four-repeat tau fragment), heparin-induced fibrillization, ThT fluorescence; series mostly up to 57.4 µM; activity, negative = inhibition: at the top concentration.
Chain of UniProt P10636 (P10636 whole entry, looked up, the tested form may be a part): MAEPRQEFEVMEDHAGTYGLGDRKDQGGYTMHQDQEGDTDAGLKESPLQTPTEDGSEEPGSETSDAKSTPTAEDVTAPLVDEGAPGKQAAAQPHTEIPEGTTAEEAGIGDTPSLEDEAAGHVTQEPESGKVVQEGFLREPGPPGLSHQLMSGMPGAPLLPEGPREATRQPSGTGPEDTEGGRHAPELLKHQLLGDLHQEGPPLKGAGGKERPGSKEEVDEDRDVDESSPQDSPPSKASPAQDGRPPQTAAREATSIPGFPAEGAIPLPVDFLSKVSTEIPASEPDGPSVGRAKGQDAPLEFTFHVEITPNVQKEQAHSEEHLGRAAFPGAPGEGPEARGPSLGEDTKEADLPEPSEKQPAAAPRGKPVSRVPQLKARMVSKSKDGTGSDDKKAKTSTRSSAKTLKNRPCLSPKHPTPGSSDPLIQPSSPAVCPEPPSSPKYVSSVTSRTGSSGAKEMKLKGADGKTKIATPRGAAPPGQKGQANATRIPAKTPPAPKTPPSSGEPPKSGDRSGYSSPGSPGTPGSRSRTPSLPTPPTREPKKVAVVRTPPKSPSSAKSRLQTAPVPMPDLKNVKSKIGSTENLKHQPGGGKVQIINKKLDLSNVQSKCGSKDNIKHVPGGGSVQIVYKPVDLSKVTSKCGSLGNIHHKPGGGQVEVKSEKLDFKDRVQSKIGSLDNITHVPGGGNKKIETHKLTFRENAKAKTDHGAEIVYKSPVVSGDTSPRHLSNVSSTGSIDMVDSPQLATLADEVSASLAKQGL
In short: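 Tau K18 P301L fragment (15 uM unlabeled plus 0.24 uM Alexa 594-labeled) in 100 mM sodium acetate pH 7 with compound, fibrillization induced by 20 uM heparin for 6 hr at 37 C. Thioflavin T (30 uM) added, fluorescence read after 1 hr (ex 450, em 510 nm).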
% is scaled to controls: 0 for no effect and ±100 for the full control effect; potency is read from the fitted curve at half-maximal effect; tags tell the direction and shape of the fitted curve.
Also: nearly all actives have a fitted effect of over 55% in size.

SMILES	Potency	activity, negative = inhibition
COc1ccc(CCNc2ncnc3c2oc2ccccc23)cc1OC	inconclusive: 7.94 µM [inhibitor, partial curve]	–
Cc1ccn2c(Nc3ccccc3C)c(-c3ccccc3)nc2c1	inconclusive: 17.8 µM [inhibitor, single point]	–
O=C(CSc1nnc(-c2ccccn2)n1-c1ccc(Cl)cc1)Nc1ccc2c(c1)OCO2	–	inactive: 3.18%
CC(=O)N(c1ccccc1)C1SC(=O)N(c2ccccc2)C1=O (stereo not given)	inconclusive: 3.55 µM [inhibitor, full curve]	–
O=C(Nc1cccc(NC(=O)c2sc3ccccc3c2Cl)c1)c1ccco1	inconclusive: 0.316 µM [inhibitor, full curve, poor fit]	–
COc1ccc(C2C(=O)N(C3CCCCC3)CC(=O)N2C2CCCCC2)cc1 (stereo not given)	inactive	–
CCN1CCc2c(C#N)c(NCc3ccccc3)nc(N(CC)CC)c2C1	inconclusive: 39.8 µM [inhibitor, single point]	–
COCCn1c(C)cc(O)c(C(c2ccc(Cl)cc2)N2CCCCC2)c1=O (stereo not given)	inconclusive: 20 µM [inhibitor, single point]	–
Cc1cc(C)c(NC(=O)CN2C(=O)CCSc3ccc(S(=O)(=O)N4CCCC4)cc32)c(C)c1	–	inactive: 0.431%
O=C1COc2ccc(C(=O)COc3ccc([N+](=O)[O-])cc3)cc2N1	inconclusive: 1.41 µM [inhibitor, full curve]	–
Cc1ccc2cc(C(c3nnnn3C3CCCC3)N(Cc3ccco3)Cc3cccs3)c(=O)[nH]c2c1 (stereo not given)	inconclusive: 31.6 µM [inhibitor, partial curve]	–
Cn1cccc1/C=C1\SC(=Nc2ccc(O)cc2)NC1=O	active: 4.47 µM	–
Cc1cc(C)cc(NC(=O)CCN2C(=O)c3ccccc3Sc3ncccc32)c1	–	inactive: -8.62%
O=C(N/C(=C/C=C/c1ccccc1)C(=O)N1CCCCC1)c1ccc([N+](=O)[O-])cc1	inconclusive: 15.8 µM [inhibitor, partial curve]	–
Nc1[nH]n2c(=O)c3c(nc2c1N=Nc1ccccc1)CCCC3	active: 4.47 µM	–
CCOC(=O)CSc1ncccn1	–	inactive: -5.25%
C/C(=N\NC(=O)c1ccc(COc2ccccc2)cc1)c1ccncc1	inconclusive: 1 µM [inhibitor, full curve]	–
CCOC(=O)c1[nH]c2ccc(C)cc2c1N	inconclusive: 11.2 µM [inhibitor, partial curve]	–
O=C(Nc1ccc(-c2nc3ccccc3o2)cc1)C1CCCO1 (stereo not given)	inconclusive: 14.1 µM [inhibitor, partial curve]	–
Cc1noc2ncnc(N3CCN(c4cccc(Cl)c4)CC3)c12	inconclusive: 20 µM [inhibitor, partial curve, poor fit]	–
